For 29 compounds, activity change, negative = inhibition results are on record in PubChem BioAssay AID1745853 (National Center for Advancing Translational Sciences (NCATS), 2022).

The other results are listed elsewhere or left out. The main result of the screen is listed elsewhere. These columns were measured beside it and carry no call.

Assay in all cases: Primary Screen for Target Class Profiling of Small Molecule Inhibitors of Methyltransferases
Experiment [1] has as its target Glycine N-methyltransferase (Homo sapiens) (UniProt Q14749). As to conditions: purified enzyme, MTase-Glo SAH luminescence; measured here: GNMT inhibition; at 40 µM; stronger effect = lower value. The procedure, abridged: (§1)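 Each enzyme was reacted with SAM and its substrate, with compounds tested once at 40 uM; SAH formed was read by MTase-Glo luminescence.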
Experiment [2] concerns the target Guanidinoacetate N-methyltransferase (Homo sapiens) (UniProt Q14353). Conditions: purified enzyme, MTase-Glo SAH luminescence; measured here: GAMT inhibition; at 40 µM; stronger effect = lower value. The procedure, abridged:
as §1

For experiment [3], the target named is Histamine N-methyltransferase (Homo sapiens) (UniProt P50135). Conditions: purified enzyme, MTase-Glo SAH luminescence; measured here: HNMT inhibition; at 40 µM; stronger effect = lower value. The procedure, abridged: as §1
For experiment [4], the target named is Nicotinamide N-methyltransferase (Homo sapiens) (UniProt P40261). Conditions: purified enzyme, MTase-Glo SAH luminescence; measured here: NNMT inhibition; at 40 µM; stronger effect = lower value. Summed up: as §1
For experiment [5], the target named is Phenylethanolamine N-methyltransferase (Homo sapiens) (UniProt P11086). As to conditions: purified enzyme, MTase-Glo SAH luminescence; measured here: PNMT inhibition; at 40 µM; stronger effect = lower value. The procedure, abridged: as §1
On the % scale 0 is the no-effect control and ±100 the full control effect.

As to `CCc1cc2c(cc3n2CC(C)(C(=O)NC2CCCCCC2)N(CCN2CCOCC2)C3=O)s1` (stereo not given), the activity change, negative = inhibition in experiment [1] is 1.18%; in experiment [2] it was 4.73%; in experiment [3], -0.864%; in experiment [4] it was -3.2%; in experiment [5], -0.202%.

Turning to `CC1(C(=O)NC2CCCCCCC2)Cn2c(ccc2-c2ccco2)C(=O)N1Cc1ccccn1` (stereo not given), the activity change, negative = inhibition in experiment [1] was -11.4%; in experiment [2], 2.75%; in experiment [3], -0.527%; in experiment [4], -11.5%; in experiment [5], -7%.

As for `CCOc1ccc(NC(=O)N2CCn3cccc3C2C(C)C)cc1` (stereo not given), the activity change, negative = inhibition in experiment [1] turned out to be 6.86%; in experiment [2] it was 0%; in experiment [3], 3.71%; in experiment [4], 2.74%; in experiment [5] it was 4.35%.

Take `CCC(CC)n1ccc2c(C(=O)NCc3c(C)cc(C)[nH]c3=O)cc(C#N)cc21`: the activity change, negative = inhibition was 1.3% in experiment [1]; 0.316% in experiment [2]; 2.29% in experiment [3]; -26.4% in experiment [4]; -18.4% in experiment [5].

On to `COc1ccc(C(=O)NCCc2ncc(C)n2C2CC2)cn1`, for which the activity change, negative = inhibition in experiment [1] is -0.934%; in experiment [2] it was -1.55%; in experiment [3], -13.9%; in experiment [4] it was -9.08%; in experiment [5], -2.62%.

For the compound `CC(=O)O[C@@](C)(C(=O)/C=C/C(C)(C)O)[C@H]1[C@H](O)C[C@@]2(C)[C@@H]3CC=C4[C@@H](C=C(O)C(=O)C4(C)C)[C@]3(C)C(=O)C[C@]12C`, the activity change, negative = inhibition in experiment [1] was -3.01%; in experiment [2], -6.64%; in experiment [3] it was 7.23%; in experiment [4] it was -18.4%; in experiment [5], 1.26%.

For the compound `CC1(C(=O)NC2CCCCC2)Cn2nc(-c3cccs3)cc2C(=O)N1Cc1ccccc1Cl` (stereo not given), the activity change, negative = inhibition is 0.847% in experiment [1]; 7.94% in experiment [2]; 8.13% in experiment [3]; 5.95% in experiment [4]; 2.04% in experiment [5].

With `Cc1ccc(C)c(NC(=O)CNS(=O)(=O)c2ccc3[nH]c(=O)oc3c2)c1`, the activity change, negative = inhibition in experiment [1] is 6.49%; in experiment [2], 5.2%; in experiment [3], 6.2%; in experiment [4] it was -7.7%; in experiment [5] it was 3.02%.

With `Cc1cccnc1C(=O)N[C@@H]1CN(S(C)(=O)=O)C[C@H]1CN(C)C`, the activity change, negative = inhibition was -3.14% in experiment [1]; -4.67% in experiment [2]; -0.958% in experiment [3]; -4.7% in experiment [4]; -1.55% in experiment [5].

Regarding `CSc1ccc(CNC(=O)c2cc3n(n2)CC(C)(C(=O)NC2CCCC2)N(C)C3=O)cc1` (stereo not given), the activity change, negative = inhibition in experiment [1] was 8.25%; in experiment [2], -2.02%; in experiment [3], 2.66%; in experiment [4] it was -0.957%; in experiment [5], -4.03%.

Turning to `N#Cc1cccc(C(=O)N2C[C@@H](Oc3cccnc3)C[C@H]2C(=O)NC2CC2)c1`, the activity change, negative = inhibition was -5.05% in experiment [1]; -9.42% in experiment [2]; -2.9% in experiment [3]; -13.7% in experiment [4]; -6.47% in experiment [5].

Regarding `C=C1C(=O)O[C@@H]2/C=C(\C)CC/C=C(/C=O)[C@H](OC)[C@@H](OC(=O)C(C)C)[C@@H]12`, the activity change, negative = inhibition is 0% in experiment [1]; 1.8% in experiment [2]; 0.669% in experiment [3]; -10.5% in experiment [4]; 2.75% in experiment [5].

For `COCCN1C(=O)N(CCCc2cccnc2)C(=O)C12CCN(C/C=C/c1ccc(OC)cc1)CC2`, the activity change, negative = inhibition is -8.75% in experiment [1]; -6.84% in experiment [2]; -5.29% in experiment [3]; -22% in experiment [4]; -11.5% in experiment [5].

With `COCc1noc(CCNc2nc(C)nc3c2cnn3C)n1`, the activity change, negative = inhibition was -0.816% in experiment [1]; 0.408% in experiment [2]; 1.09% in experiment [3]; -1.34% in experiment [4]; -6.16% in experiment [5].

For `O=S(=O)(c1ccc(Br)cc1)c1nnn2c1nc(NCc1ccccc1)c1ccccc12`, the activity change, negative = inhibition in experiment [1] was -2.95%; in experiment [2], -3.54%; in experiment [3] it was -6.24%; in experiment [4], -4.96%; in experiment [5], -13%.

On to `COc1ccccc1NC(=O)N1CCCC2(CCC(=O)N(CC3CC3)C2)C1` (stereo not given), for which the activity change, negative = inhibition was -4.09% in experiment [1]; -10.4% in experiment [2]; -5.07% in experiment [3]; -12.3% in experiment [4]; -8.39% in experiment [5].

Regarding `CC1(C(=O)NC2CCCCC2)Cn2c(cc3occc32)C(=O)N1CCN1CCOCC1` (stereo not given), the activity change, negative = inhibition in experiment [1] is -5.11%; in experiment [2], 5.11%; in experiment [3], -3.08%; in experiment [4], 2.41%; in experiment [5], -2.28%.

As to `Cc1cc(C)c2nonc2c1S(=O)(=O)N1C[C@@H](N(C)C)[C@H](C(C)C)C1`, the activity change, negative = inhibition was -8.61% in experiment [1]; -0.758% in experiment [2]; -4.45% in experiment [3]; -1% in experiment [4]; -1.12% in experiment [5].

`CCOc1ccccc1CNC(=O)c1cc2n(n1)CC(C)(C(=O)NC1CCCCCC1)N(C)C2=O` (stereo not given): the activity change, negative = inhibition was 1.52% in experiment [1]; 3.95% in experiment [2]; -7.89% in experiment [3]; 0.398% in experiment [4]; -1.21% in experiment [5].

Regarding `O=C(CCn1ccc2cc(S(=O)(=O)N3CCCC3)ccc21)NCc1ccccc1Br`, the activity change, negative = inhibition came out at 5.53% in experiment [1]; 0% in experiment [2]; 7.1% in experiment [3]; 8.54% in experiment [4]; 4.33% in experiment [5].

On to `CCn1nccc1C(=O)N1CC[C@H](n2c(=O)n(C)c3cccnc32)C1`, for which the activity change, negative = inhibition in experiment [1] is -3.71%; in experiment [2] it was -0.372%; in experiment [3], -0.828%; in experiment [4], -0.912%; in experiment [5] it was 7.54%.

As for `C=C1C(=O)OC2/C=C(\COC(C)=O)CC/C=C(\C=O)CC(OC(=O)C(C)CC)C12` (stereo not given), the activity change, negative = inhibition in experiment [1] is 0.687%; in experiment [2] it was 10.6%; in experiment [3], 9.41%; in experiment [4], -2.56%; in experiment [5] it was 7.14%.

Consider `Cc1cccc(CSc2nnc3n(CC(C)C)c(=O)c4ccc(C(=O)NC(C)C)cc4n23)c1`, for which the activity change, negative = inhibition in experiment [1] is 1.1%; in experiment [2], 3.04%; in experiment [3] it was 10.5%; in experiment [4], -5.91%; in experiment [5], 2.25%.

Turning to `COc1ccc(OC)c(CCN2C(=O)c3cc4ccccc4n3CC2(C)C(=O)NC2CCCC2)c1` (stereo not given), the activity change, negative = inhibition in experiment [1] was -0.473%; in experiment [2], 4.79%; in experiment [3] it was -1.76%; in experiment [4], -1.11%; in experiment [5], -4.16%.

For `Cc1nc(CCNS(=O)(=O)c2c(C)nn(C)c2C)no1`, the activity change, negative = inhibition in experiment [1] is 1.11%; in experiment [2], 0.534%; in experiment [3], 2.98%; in experiment [4], -0.429%; in experiment [5], 0.247%.

Turning to `Cc1cnc(-c2cccnc2)n1CC1CCN(S(=O)(=O)c2ccccc2)CC1`, the activity change, negative = inhibition in experiment [1] is -1.64%; in experiment [2] it was 1.96%; in experiment [3], 0.495%; in experiment [4], -10.6%; in experiment [5], 9.78%.

Consider `Cc1nc(C(=O)NC2CC(c3cc(N4CCC(O)C4)ncn3)C2)cs1` (stereo not given), for which the activity change, negative = inhibition in experiment [1] is -5.69%; in experiment [2], -5.03%; in experiment [3] it was -1.88%; in experiment [4], -7.4%; in experiment [5], -3.97%.

Take `C[C@H](C(=O)NC1CCCC1)N(C(=O)Cn1nnc(-c2ccc3c(c2)OCO3)n1)C1CCCCC1`: the activity change, negative = inhibition in experiment [1] was 3.38%; in experiment [2], 7.84%; in experiment [3], 4.93%; in experiment [4] it was -17.2%; in experiment [5] it was -4.76%.

On to `CCCn1c(=O)c2ccc(C(=O)NC(C)C)cc2n2c(=O)n(Cc3ccccc3F)nc12`, for which the activity change, negative = inhibition in experiment [1] is -2.17%; in experiment [2], 4.66%; in experiment [3], 2.38%; in experiment [4] it was -13.6%; in experiment [5] it was 0.586%.
